# Measured values as given in patent publication US20240216556A1 (UNIVERSITY OF TENNESSEE RESEARCH FOUNDATION, published 2024).
# Key:
# [1] = target: T1, human ALλ amyloid extract (SHI) (human); experiment: plate binding to amyloid substrate, anti-human Fc and streptavidin-europium, time-resolved fluorescence
# T1 construct: Tissue extract of amyloid, not a pure protein; also called ALλ (SHI); ALA
# [2] = target: T2, human ATTRwt amyloid extract (125) (human, UniProt P02766); experiment: as above
# [3] = target: T3, human ATTRv amyloid extract (KEN) (human); experiment: as above
# T3 construct: Tissue extract of amyloid, not a pure protein; also called ATTRv (KEN); KEN hATTR extract
# [4] = target: T4, rVλ6Wil fibrils (synthetic amyloid-like fibrils of the recombinant λ6 variable domain protein Wil); experiment: as above
# T4 construct: domain: λ6 variable domain; Fibrillar aggregate; pHrodo red-labelled in the phagocytosis assays; also called rVλWIL; synthetic fibrils
# [5] = target: T5, human ALκ amyloid extract (TAL) (human); experiment: as above
# T5 construct: Tissue extract of amyloid, not a pure protein; also called ALκ (TAL); ALK
# [6] = target: T1, human ALλ amyloid extract (SHI); experiment: cell-based or functional assay
# [7] = target: T2, human ATTRwt amyloid extract (125); experiment: cell-based or functional assay
# [8] = target: T5, human ALκ amyloid extract (TAL); experiment: cell-based or functional assay
binder,measurement,setting,value
"Fcp5R CV1 (p5R peptide fused to the C-terminus of human IgG1 Fc via the short, rigid spacer VSPSV) (Fc fusion, Dimer of two identical Fc-spacer-p5R chains, made in CHO cells; biotinylated for the staining of tissue sections; also called hFc1CV1; Fc1CV1) APGGGSVS[… human IgG1 Fc …]VSPSVRAQRAQARQARQAQRAQRAQARQARQ",EC50,[1],1.7 nM
same,EC50,[2],0.7 nM
same,EC50,[3],1.8 nM
same,EC50,[4],0.5 nM
same,EC50,[5],0.53 nM
same,ex vivo phagocytosis of pHrodo red-labeled amyloid by PMA-activated THP-1 macrophages; concentration at which the effect saturates,[6],~60 nM
same,ex vivo phagocytosis of pHrodo red-labeled amyloid by PMA-activated THP-1 macrophages; concentration at which the effect saturates,[7],~60 nM
same,ex vivo phagocytosis of pHrodo red-labeled amyloid by PMA-activated THP-1 macrophages; concentration at which the effect saturates,[8],~60 nM
